Results taken from paper PMC12040169 (PLOS Biology, 2025).
This is one part of the list.

test system: T1, C. trachomatis L2/434/Bu expressing GFP (CTL2-GFP); design: species or system HeLa; C. trachomatis total inclusion area by high-content imaging, normalised to DMSO; conditions: total inclusion area; 28.5 h, 10 µM; inhibitor
T1 construct: L2/434/Bu GFP intracellular growth in HeLa cells
Method in brief: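 Host cell viability was gauged from Hoechst-stained nuclei counts, while chlamydial growth was taken from total inclusion area and inclusion number per well. Cells were fixed and imaged by high-content microscopy once bulk GFP and resorufin fluorescence had been measured.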

Point of comparison: `CC(C)CS(=O)(=O)Nc1ccc(F)cc1F` [CBK020615], “% of control remaining” value 104.88. Against it:
- CS(=O)(=O)Nc1ccc2cc(-c3cccc(C(F)(F)F)c3)cnc2n1 [CBK085671] — lower, 97.7844
- Cc1nc2ccc(C(=O)N(C)CCN3CCCCC3)cc2s1 [CBK281919] — lower, 89.1419
- Cc1ccc(C(=O)N2CN(C(=O)CNC(C)(C)C)CC2(C)C)cc1 [CBK089575C] — lower, 36.4711
- O=C(NCc1nnc2ccccn12)c1ccccc1 [CBK288064] — lower, 101.006
- Cc1noc(C)c1C(=O)N1CCOCC1 [CBK057765] — lower, 76.4823
- CN(CC(F)(F)F)C(=O)CCc1nc(-c2cccs2)no1 [CBK282215] — lower, 91.3466
- CCOc1ccc(CN(C)C(C)C(=O)Nc2cc(C)no2)cc1 (stereo not shown) [CBK305607] — lower, 69.1218
- Cn1cncc1CN1CCNC(=O)C1c1ccccc1C(F)(F)F (stereo not shown) [CBK305495] — lower, 38.9371
- O=C(c1cc[nH]c1)N1CCC2(CCN(Cc3ccccc3)CC2)C1 [CBK136756] — lower, 95.7087
- CC(C)[C@@H](N)Cn1nnc2ccccc21 [CBK284323] — lower, 88.9454
- Cc1cc(OCC(=O)Nc2ccc(S(=O)(=O)Nc3onc(C)c3C)cc2)cc(C)c1Cl [CBK263491] — lower, 17.1956
- O=C(O)CN1CCN(c2ncnc3sc4c(c23)CCCC4)CC1 [CBK286836] — higher, 130.593
- Cc1n[nH]cc1C(=O)NC[C@H]1CC[C@H](c2cc(C(=O)NC(C)C)c3ccccc3n2)CC1 [CBK285862] — higher, 117.029
- O=S(=O)(NC[C@H]1C[C@@H]2CC[N@]1C[C@@H]2CN1CCOCC1)c1cccs1 [CBK288759] — lower, 102.351
- CC(=O)N1CCC(C(=O)NC(=O)NCCOc2ccccc2Cl)CC1 [CBK034842] — lower, 86.6795
- COc1ccnc(N2CCN(Cc3nnnn3C3CC3)CC2)n1 [CBK305808] — lower, 42.0434
- Cc1ccc2nc3c(cc2c1)CN(Cc1ccco1)C(=O)CO3 [CBK283594] — lower, 70.2993
- O=C(COC(=O)CN1C(=O)C(=O)c2ccccc21)Nc1cccc2ccccc12 [CBK263915] — lower, 100.564
- CC1CCCCN1C(=O)c1cccc(Cn2cc(Br)c([N+](=O)[O-])n2)c1 (stereo not shown) [CBK058788] — lower, 75.7223
- Cc1nc(O)cc(C2CCCN(C(=O)c3scc4c3CCCC4)C2)n1 (stereo not shown) [CBK306969] — lower, 71.1188
- CC(=O)N1CCc2sccc2C1c1ccc(NC(=O)C2CC2)cc1 (stereo not shown) [CBK282907] — lower, 92.7726
- O=C(NC1CC1)[C@H]1CN2CCC1C[C@@H]2Cn1cc(-c2cccc(O)c2)nn1 (stereo partly shown) [CBK288738] — higher, 121.174
- O=C(CCCN1C(=O)c2cccc3cccc(c23)C1=O)NCc1cccnc1 [CBK262190] — lower, 99.2377
- CN1CCN(C(=O)c2ccc(-c3ccc4c(c3)OCO4)nc2NCc2cccnc2)CC1 [CBK076110] — lower, 96.1485
- COc1ccc(/C=N/NC(=O)CSc2nnc(C)n2-c2ccccc2)cc1 [CBK262812] — higher, 105.268
- COC(=O)Nc1nc2cc3cn[nH]c3cc2[nH]1 [CBK016129] — lower, 104.785
- COc1ccccc1C(C)N(C)CCC(=O)Nc1cc(C)on1 (stereo not shown) [CBK305098] — lower, 97.2387
- COc1ccc(CC(=O)NC(CCSC)c2nnc3ccccn23)cc1 (stereo not shown) [CBK306077] — lower, 58.752
- N=C(N)SCCCCCSC(=N)N [CBK278314B] — lower, 93.7552
- Cn1c(=O)n(CC(=O)N2CCC(C(=O)NC(c3ccccc3)c3ccccn3)CC2)c2ccccc21 (stereo not shown) [CBK060494] — higher, 108.64
- COc1ccc(CNC(=O)[C@H]2C=CCN2C(=O)c2ccco2)cc1 [CBK284321] — lower, 103.81
- Fc1ccccc1-c1cn2ccnc2c(N2CCOCC2)n1 [CBK036584] — lower, 89.8799
- CC1CN(S(=O)(=O)c2ccc(NC(=O)C3CC(=O)Nc4cc(F)ccc43)cc2)CC(C)O1 (stereo not shown) [CBK297933] — lower, 81.2967
- CCOc1cc(/C=C2\S/C(=N/c3ccc(S(N)(=O)=O)cc3)NC2=O)c(Br)cc1O [CBK265622] — lower, 88.2249
- CC(NC(=O)c1cn(C)c(=O)c2ccccc12)c1ccccn1 (stereo not shown) [CBK281886] — lower, 96.0745
- Cc1cc(C)nc(NC(=O)OCCN2CCN(C)CC2)c1 [CBK138235] — lower, 93.6559
- Cc1cc(=O)oc2cc(NC(=S)NNC(=O)c3ccc(Cl)s3)ccc12 [CBK266828] — lower, 94.865
- Cc1cccc(C)c1OCC(=O)Nc1ccc(S(=O)(=O)N2CCOCC2)cc1 [CBK266967] — higher, 111.926
- N#Cc1ccccc1CSc1nc2ccc(NC(=O)c3ccc([N+](=O)[O-])cc3)cc2s1 [CBK265868] — higher, 117.011
- CCOC(=O)C(C)NC(=O)c1cc2ccc(F)cc2[nH]1 (stereo not shown) [CBK283214] — lower, 60.8365
- O=C(CN1C(=O)N2CCCN=C2c2ccccc21)N1CCCCC1 [CBK284395] — lower, 90.2505
- Clc1cnc2nc(NCC3CCCCC3)sc2c1 [CBK067087] — lower, 30.0619
- O=C(CN1CCOCC1)NCCNc1c(Cl)c(Cl)c(Cl)c(Cl)c1Cl [CBK266851] — lower, 97.7513
- CC(C)N(C)CC(=O)N(C)c1nc2c(s1)CC(c1ccccc1)CC2 (stereo not shown) [CBK305535] — lower, 48.8089
- COC(=O)CCc1ccc(S(=O)(=O)N2CCCN(Cc3cc(F)c(F)c(F)c3)CC2)cc1 [CBK062998] — lower, 97.1131
- Cc1c(F)cccc1CN(CC(C)(C)CN)C(=O)Nc1ccc(C(F)(F)F)cc1 [CBK002417C] — lower, 62.3732
- Cc1nc2cc(C(=O)N3CCC(c4ccccc4)C3)ccc2n1C (stereo not shown) [CBK281841] — lower, 104.525
- c1ccc2c(c1)OCC(COc1cncc(N3CCNCC3)n1)O2 (stereo not shown) [CBK172357G] — lower, 37.1173
- Cc1ccc(S(=O)(=O)c2ccc(C)c(S(N)(=O)=O)c2)cc1S(N)(=O)=O [CBK261664] — lower, 104.217
- O=C(NC1CC2(CCCC2)Oc2ccccc21)C1CCOC1 (stereo not shown) [CBK283802] — higher, 104.915
- CN(C)CCCC(=O)Nc1cccc2[nH]ccc12 [CBK159660] — lower, 90.24
- C=CCNC(=O)N[C@H]1[C@H](O)[C@@H](N(CC)CC)[C@@H]2OC[C@H]1O2 [CBK288817] — higher, 120.597
- COc1cc(C(=O)N2CCC3(CC2)NC(=O)c2cc(Br)ccc2O3)ccc1C [CBK149464] — lower, 88.7587
- CC(=O)NCCc1c(C(=O)O)[nH]c2ccc(OCc3ccccc3)cc12 [CBK260945] — lower, 104.775
- CC(C)NC(=O)C1(Cc2ccc(-c3ccccc3)cc2)CCN(C(=O)C2CCCC2)CC1 [CBK285751] — lower, 93.0642
- CCOC(=O)c1c(NC(=O)Cn2cnc([N+](=O)[O-])n2)sc2c1CCCC2 [CBK262583] — higher, 110.156
- CN(Cc1ccccc1)S(=O)(=O)c1ccccc1[N+](=O)[O-] [CBK261458] — higher, 117.077
- CCCCn1nc(Cn2cncn2)nc1CC1NC(=O)c2ccccc21 (stereo not shown) [CBK307395] — lower, 70.7859
- Cc1ccc(Cn2ncc3c(C(=O)N4CCC(N(C)S(C)(=O)=O)CC4)cc(C)nc32)cc1 [CBK298280] — higher, 123.978
- Fc1ccc(C2CCc3n[nH]cc3C2)cc1 (stereo not shown) [CBK015957C] — higher, 115.893
- O=C(COc1ccccc1Cl)Nc1nnc[nH]1 [CBK287946] — lower, 87.0293
- O=C(Cn1cnc2ccccc2c1=O)Nc1cccc(-c2cnc3ccccc3n2)c1 [CBK270020] — lower, 92.6201
- COc1ccc(C(CC(=O)O)NC(=O)c2ccc(Cl)cc2Cl)cc1 (stereo not shown) [CBK269131] — lower, 94.8129
- Cc1ccc(S(=O)(=O)Nc2ccc(Nc3nc(-c4ccccc4)cn4ccnc34)cc2)cc1 [CBK037303] — higher, 120.31
- CN1CCN(S(=O)(=O)c2ccc(NC(=O)Cc3ccc([N+](=O)[O-])cc3)cc2)CC1 [CBK268161] — lower, 101.45
- CN(C(=O)NC1CCN(Cc2cccc(O)c2)CC1)C1CCS(=O)(=O)C1 (stereo not shown) [CBK306538] — lower, 61.8366
- Cc1cc(NCC2CCCO2)n2ncc(-c3ccccc3)c2n1 (stereo not shown) [CBK304530] — lower, 59.3149
- COc1ccccc1N1CCN(C(=O)C2CC2C)CC1 (stereo not shown) [CBK091496] — higher, 123.648
- Cc1ccc(NC(=O)CCC(=O)N2CCC3(CC2)CC(=O)c2ccccc2O3)cc1 [CBK156524] — lower, 85.8889
- O=C(Oc1ccc(N(C(=O)c2ccncc2)S(=O)(=O)c2cccc3cccnc23)c2ccccc12)c1ccncc1 [CBK266915] — lower, 61.3048
- COC(=O)c1cn([C@H]2CO[C@H]3[C@@H]2OC[C@@H]3NC(=O)C2CC2)nn1 [CBK289497] — higher, 123.02
- O=C(CN1C(=O)c2ccccc2C1=O)Nc1cccc(C(=O)O)c1 [CBK287040] — lower, 104.323
- O=C(Nc1cccc(N2CCNCC2)c1)c1cnccn1 [CBK029470T] — higher, 105.609
- CC(=O)Nc1ccc(-c2cc(Nc3cccc(N(C)C)c3)ncn2)cc1 [CBK091017] — higher, 135.566
- Cc1ccnn1CCNC(=O)CCc1ccc(Cl)cc1 [CBK283182] — lower, 75.0661
- O=C(CN1C(=O)CCC1=O)NCCc1ccccc1 [CBK262326] — lower, 91.5601
- COc1ccc(Br)cc1CN1CCN(Cc2cccc([N+](=O)[O-])c2)CC1 [CBK263347] — higher, 108.562
- CC(C)(C)OC(=O)N1CCN(c2ccc(N)c3ccccc23)CC1 [CBK003162] — lower, 74.303
